Measurements as given in article PMC12460146, “Impact of metabolic enzyme activity variability on dabrafenib disposition” (Frontiers in Pharmacology, 2025).

How the values were obtained:
Type in all cases: in vitro ADME, human
[1] = substrate: CC(C)(C)c1nc(-c2cccc(NS(=O)(=O)c3c(F)cccc3F)c2F)c(-c2ccnc(N)n2)s1; assay: In vitro enzyme kinetics assay using CYP3A4 baculosomes: CYP3A4.1; details: other: CYP3A4.1; dabrafenib 5–250 µM
Procedure: (§1) Recombinant CYP3A4 and CYPb5 proteins were prepared according to our previously established protocol ([Fang et al., 2017]). Briefly, dual expression vectors (pFastBac-Dual) were used to construct CYP3A4-CYPOR and CYPb5-CYPOR expression plasmids. Subsequently, the corresponding baculosomes were harvested by ultracentrifugation using the baculovirus-insect cell expression system, and the target proteins were confirmed. Protein expression levels for each type were qualitatively and quantitatively assessed by Western blotting and BCA assay, respectively.
(§2) The 200 µL incubation system comprised 0.1 M Tris-HCl, 5 µg CYP3A4.1 or other CYP3A4 variants, 5 µg CYPb5, 1 mM NADPH, and dabrafenib. A dabrafenib concentration of 10 µM was used to evaluate variant specific metabolic activity. Michaelis-Menten kinetics were assessed using dabrafenib concentrations of 5, 10, 20, 50, 100, and 250 µM. Subsequent processing steps followed the procedures outlined in Section 2.3.

[2] = substrate: CC(C)(C)c1nc(-c2cccc(NS(=O)(=O)c3c(F)cccc3F)c2F)c(-c2ccnc(N)n2)s1; assay: In vitro enzyme kinetics assay using CYP3A4 baculosomes: CYP3A4.8; details: other: CYP3A4.8; dabrafenib 5–250 µM
Procedure: as §1, §2

[3] = substrate: CC(C)(C)c1nc(-c2cccc(NS(=O)(=O)c3c(F)cccc3F)c2F)c(-c2ccnc(N)n2)s1; assay: In vitro enzyme kinetics assay using CYP3A4 baculosomes: CYP3A4.28; details: other: CYP3A4.28; dabrafenib 5–250 µM
Procedure: as §1, §2

B1: CYP3A4.1 (Homo sapiens) (protein)
chain: MALIPDLAMETWLLLAVSLVLLYLYGTHSHGLFKKLGIPGPTPLPFLGNILSYHKGFCMFDMECHKKYGKVWGFYDGQQPVLAITDPDMIKTVLVKECYSVFTNRRPFGPVGFMKSAISIAEDEEWKRLRSLLSPTFTSGKLKEMVPIIAQYGDVLVRNLRREAETGKPVTLKDVFGAYSMDVITSTSFGVNIDSLNNPQDPFVENTKKLLRFDFLDPFFLSITVFPFLIPILEVLNICVFPREVTNFLRKSVKRMKESRLEDTQKHRVDFLQLMIDSQNSKETESHKALSDLELVAQSIIFIFAGYETTSSVLSFIMYELATHPDVQQKLQEEIDAVLPNKAPPTYDTVLQMEYLDMVVNETLRLFPIAMRLERVCKKDVEINGMFIPKGVVVMIPSYALHRDPKYWTEPEKFLPERFSKKNKDNIDPYIYTPFGSGPRNCIGMRFALMNMKLALIRVLQNFSFKPCKETQIPLKLSLGGLLQPEKPVVLKVESRDGTVSGA
notes: made in house; host or cells: insect cells (baculovirus, pFastBac-Dual)
Km [1]: 17.78 ± 1.535 µM
Vmax/Km [1]: 15 µL/min/mg

B2: CYP3A4.8 (Homo sapiens; R130Q) (protein)
chain: MALIPDLAMETWLLLAVSLVLLYLYGTHSHGLFKKLGIPGPTPLPFLGNILSYHKGFCMFDMECHKKYGKVWGFYDGQQPVLAITDPDMIKTVLVKECYSVFTNRRPFGPVGFMKSAISIAEDEEWKRLQSLLSPTFTSGKLKEMVPIIAQYGDVLVRNLRREAETGKPVTLKDVFGAYSMDVITSTSFGVNIDSLNNPQDPFVENTKKLLRFDFLDPFFLSITVFPFLIPILEVLNICVFPREVTNFLRKSVKRMKESRLEDTQKHRVDFLQLMIDSQNSKETESHKALSDLELVAQSIIFIFAGYETTSSVLSFIMYELATHPDVQQKLQEEIDAVLPNKAPPTYDTVLQMEYLDMVVNETLRLFPIAMRLERVCKKDVEINGMFIPKGVVVMIPSYALHRDPKYWTEPEKFLPERFSKKNKDNIDPYIYTPFGSGPRNCIGMRFALMNMKLALIRVLQNFSFKPCKETQIPLKLSLGGLLQPEKPVVLKVESRDGTVSGA
notes: as for B1
Km [2]: 47.37 ± 12.486 µM
Vmax/Km [2]: 5 µL/min/mg

B3: CYP3A4.28 (Homo sapiens; L22V) (protein)
chain: MALIPDLAMETWLLLAVSLVLVYLYGTHSHGLFKKLGIPGPTPLPFLGNILSYHKGFCMFDMECHKKYGKVWGFYDGQQPVLAITDPDMIKTVLVKECYSVFTNRRPFGPVGFMKSAISIAEDEEWKRLRSLLSPTFTSGKLKEMVPIIAQYGDVLVRNLRREAETGKPVTLKDVFGAYSMDVITSTSFGVNIDSLNNPQDPFVENTKKLLRFDFLDPFFLSITVFPFLIPILEVLNICVFPREVTNFLRKSVKRMKESRLEDTQKHRVDFLQLMIDSQNSKETESHKALSDLELVAQSIIFIFAGYETTSSVLSFIMYELATHPDVQQKLQEEIDAVLPNKAPPTYDTVLQMEYLDMVVNETLRLFPIAMRLERVCKKDVEINGMFIPKGVVVMIPSYALHRDPKYWTEPEKFLPERFSKKNKDNIDPYIYTPFGSGPRNCIGMRFALMNMKLALIRVLQNFSFKPCKETQIPLKLSLGGLLQPEKPVVLKVESRDGTVSGA
notes: as for B1
Km [3]: 19.59 ± 1.624 µM
Vmax/Km [3]: 19 µL/min/mg
